{"source": "patent US20260335277A1", "about": "“CHLOROTONIL DERIVATIVES” (priority 2023, published 2026)", "key": {"[1]": {"tested_on": "drug-sensitive P. falciparum 3D7", "experiment": "Drug sensitivity assay, asexual stages (HRP2 ELISA, 72 h)", "assay_type": "cell-based", "conditions": "mean ± SD (n = 2), read-out: IC50 P. falcip. 3D7", "experimental": "(§1) Drug sensitivity assays of asexual plasmodium stages were carried out as described before (doi: 10.1128/AAC.49.8.3575-3577.2005). Briefly, the drugs were distributed in a 3-fold serial dilution in 96-well plates. Synchronized ring-stage parasites were diluted to a parasitemia of 0.05% with O Rh+ erythrocytes incomplete culture medium and seeded at a hematocrit of 1.5% in a total volume of 225 μL per well. Thereafter, the plates were incubated at 5% CO2, 5% O2, at 37° C. for 72 h, then they were frozen and thawed three times. The growth inhibition of P. falciparum was measured through an enzyme-linked immunosorbent assay (ELISA) for histidine-rich protein 2 (HRP2) using a microplate reader."}, "[2]": {"tested_on": "chloroquine-resistant P. falciparum", "experiment": "Drug sensitivity assay, asexual stages (HRP2 ELISA, 72 h)", "assay_type": "cell-based", "conditions": "chloroquine-resistant P. falciparum Dd2, mean ± SD (n = 2), read-out: IC50 P. falcip. Dd2", "experimental": "as §1"}, "[3]": {"tested_on": "Plasmodium falciparum", "conditions": "starting parasitemia 0.01 to 2.5%; cited from earlier work"}}, "note": "pIC50: −log10 of the molar value. For some of these results: The name of at least one read-out is uncertain. For some of these results: At least one structure is not confirmed: it was looked up by name or label, or the drawing left a doubt."}
{"smiles": "CC1=C[C@@H](C)[C@H]2[C@@H]3C(=O)C(Cl)=C([O-])[C@H](C)C(=O)O[C@@H](C)/C=C/C=C\\[C@@H](C)[C@@H]3C=C[C@@H]2C1.CC1=C[C@@H](C)[C@H]2[C@@H]3C(=O)C(Cl)=C([O-])[C@H](C)C(=O)O[C@@H](C)/C=C/C=C\\[C@@H](C)[C@@H]3C=C[C@@H]2C1.CC1=C[C@@H](C)[C@H]2[C@@H]3C(=O)C(Cl)=C([O-])[C@H](C)C(=O)O[C@@H](C)/C=C/C=C\\[C@@H](C)[C@@H]3C=C[C@@H]2C1.[Mg+2].[Na+]", "note": "[ChB2, reference compound]", "values": [{"measurement": "pIC50", "setting": "[1]", "value": 7.04}, {"measurement": "pIC50", "setting": "[2]", "value": 7.20}]}
{"smiles": "C[C@H]1[C@H](OC(=O)CCC(=O)O)O[C@@H]2O[C@@]3(C)CC[C@H]4[C@H](C)CC[C@@H]1[C@@]24OO3", "note": "[artesunate]", "values": [{"measurement": "IC50 fold difference between lowest and highest parasitemia", "setting": "[3]", "value": 8.8, "unit": "fold"}]}
{"smiles": "CC1=CC(C)C2C(C=CC3C(C)C=CC=CC(C)OC(=O)C(C)(C)C(=O)C(Cl)=C(O)C32)C1", "note": "(stereo not shown) [ChB1-2′Me]", "values": [{"measurement": "pIC50", "setting": "[1]", "value": 6.97}, {"measurement": "pIC50", "setting": "[2]", "value": 7.15}]}
{"smiles": "CC1=C[C@@H](C)[C@H]2[C@@H]3C(O)=C(SS)C(=O)[C@H](C)C(=O)O[C@@H](C)/C=C/C=C\\[C@@H](C)[C@@H]3C=C[C@@H]2C1", "note": "[thiotonil]", "values": [{"measurement": "pIC50", "setting": "[1]", "value": 7.25}, {"measurement": "pIC50", "setting": "[2]", "value": 7.19}]}
{"smiles": "CC1=CC(C)C2C(C=CC3C(C)C=CC=CC(C)OC(=O)C(C)C(=O)C(Cl)=C(O)C32)C1", "note": "(stereo not shown) [ChB1, reference compound]", "values": [{"measurement": "pIC50", "setting": "[1]", "value": 7.40}, {"measurement": "pIC50", "setting": "[2]", "value": 7.35}]}
{"smiles": "CCN(CC)CCCC(C)Nc1ccnc2cc(Cl)ccc12", "note": "(stereo not shown) [Chloroquine]", "values": [{"measurement": "IC50 fold difference between lowest and highest parasitemia", "setting": "[3]", "value": 5.6, "unit": "fold"}]}
